Data taken from paper PMC6249039 (Journal of medicinal chemistry, 2018).

How the values were obtained:
[1] = target: NDM-1 (Klebsiella pneumoniae, UniProt C7C422); assay: biochemical; settings: read-out: Percent inhibition, NDM-1
[2] = target: Human MetAP1 Mn2+ isoform (Homo sapiens, UniProt P53582); assay: Cross-inhibition screen, human methionine aminopeptidase 1; assay type: biochemical; settings: read-out: Percent inhibition, Human MetAP1 Mn2+ isoform

Row | Structure (SMILES) | inhibition at 200 µM [1] [%] | inhibition at 200 µM [2] [%]
1 | Cc1cc(=O)c(O)c(C(=O)O)o1 [Compound 1, 3-Hydroxy-6-methyl-4-oxo-4H-pyran-2-carboxylic acid] | 13 | –
2 | Cc1cc(=O)c(O)c(C(=O)O)[nH]1 [Compound 17, 3-Hydroxy-6-methyl-4-oxo-1,4-dihydropyridine-2-carboxylic acid] | – | 0
3 | Cc1nc(C(=O)O)c(O)c(=O)[nH]1 [Compound 19] | – | 0
4 | Nc1cccc(C(=O)O)c1O [Compound 23] | – | 0
